Measurements published in PubChem BioAssay AID463173 (ICCB-Longwood Screening Facility, Harvard Medical School, 2010).
Screen size: about 52,000 compounds; about 4,300 (8.3%) were called active. Rule as the data show it: active = survival mostly below about 52% (no sharp cut-off); inactive = mostly above about 56%. This is one part of the list.

test system: DeltatarO mutant; experiment: growth inhibition of S. aureus wild type versus tarO mutant, primary screen, teichoic acid synthesis inhibitors, RN4220, OD600 (AID 463173); details: OD600, 18 h, stronger effect = lower value, screened at 18.75 µg/mL (by protocol)

Structure (SMILES)	survival
COc1ccc(CNC(=O)CCS(=O)(=O)c2cc3c4c(c2)CCN4C(=O)CC3)cc1OC	inactive: 66%
Cc1cc(Cl)ccc1NC(=O)CCS(=O)(=O)c1ccc2c(c1)CC(C)N2C(=O)C1CC1 (configuration not stated)	inactive: 126%
CCCCCc1nc2ccccc2c(=O)n1N	inactive: 93%
CC(C)NC(=O)C1=CC(c2ccc3c(c2)OCO3)=NS(=O)(=O)N1C	inactive: 86%
COc1ccccc1CNC(=O)c1cc2cccc3c2n1CCS3	inactive: 99%
CCc1nn2c(=O)c(S(=O)(=O)Nc3ccc(C)cc3C)c(C)nc2s1	inactive: 68%
COc1ccc(-c2nc(CSCC(=O)NCCc3ccc(OC)c(OC)c3)c(C)o2)cc1	inactive: 79%
CCN(C(=O)CSc1nnc(-c2ccccc2Br)o1)c1nc(C)cs1	inactive: 71%
Cc1ccc(S(=O)(=O)c2nnn3c2nc(N(C)Cc2ccccc2)c2cc(Cl)ccc23)cc1C	inactive: 108%
CCCOc1ccc(C(=O)N(Cc2ccc(Cl)cc2)Cc2ccco2)cc1	inactive: 50%
Cc1cn2c(=O)cc(COC(=O)COc3ccc(C)c(C)c3)nc2s1	inactive: 67%
O=C(c1ccccc1)N1CCC(c2nc3ccccc3[nH]2)CC1	inactive: 86%
COc1cc(NC(=O)CCS(=O)(=O)c2ccc(Br)cc2)cc(OC)c1	inactive: 102%
Cc1ccc(CNC(=O)c2ccc3c(c2)NC(=O)C(CS(=O)(=O)Cc2cccc(C)c2)N3)cc1 (configuration not stated)	inactive: 135%
CCCCN(C)C(=O)CN1C(=O)c2cccnc2Oc2ccc(Cl)cc21	inactive: 89%
CN(C(=O)CSc1nncn2c1cc1occc12)c1ccccc1	inactive: 74%
CCN(CC)C(=O)c1sc2c(c1C)c(=O)n(-c1ccccc1)c(=O)n2CC(=O)N(CC)c1cccc(C)c1	inactive: 87%
COc1cc(C(=O)Nc2cc(C)c(O)c(-c3nc4cc(Cl)ccc4o3)c2)cc(OC)c1OC	inactive: 61%
CCCOc1ccc(C2C(=O)N(C3CCCCCC3)CC(=O)N2C(C)C)cc1OC (configuration not stated)	inactive: 96%
Cc1cc2nn(-c3ccc(F)cc3)nc2cc1NC(=O)c1ccc(C(C)(C)C)cc1	inactive: 60%
COc1cc(CN(C(=O)c2ccccc2)c2ccccn2)cc(OC)c1OC	inactive: 78%
COc1ccc(-c2cn3cccnc3n2)cc1NC(=O)c1ccccc1C(F)(F)F	inactive: 84%
COc1ccc2c(c1)c(=O)c(C(=O)c1ccc(F)cc1)cn2CC(=O)Nc1ccc2c(c1)OCCO2	inactive: 65%

Structure (SMILES)	survival
CCOC(=O)/C(C#N)=C1\C(=O)Nc2ccccc21	inactive: 83%
O=C(CC(c1ccccc1)c1cc(Br)ccc1O)NCCN1CCOCC1 (configuration not stated)	inactive: 100%
O=C(NCc1cccs1)c1ccc2c(c1)sc1nc(-c3ccccc3)cn12	inactive: 82%
CC(C)c1ccc(-c2noc(SCC(=O)N3CCN(c4ccccc4F)CC3)n2)cc1	inactive: 92%
Cn1c(CNC(=O)CSc2nc(-c3ccccc3F)nc3cc(=O)[nH]n23)nc2ccccc21	inactive: 74%
COc1ccc(Cn2ccn(CC(=O)Nc3cc(C)ccc3C)c(=O)c2=O)cc1	active: 47%
Cc1c(C(=O)N2CCC(C(=O)Nc3ccc(F)c(Cl)c3)CC2)sc2nc[nH]c(=O)c12	inactive: 97%
Cc1nnc2c3ccccc3nc(Nc3ccc(F)cc3Cl)n12	inactive: 83%
CCOc1ccc(-n2c(-c3ccc(Br)cc3)cc3c2CC(C)(C)CC3=O)cc1	active: 17%
CCOC(=O)c1cc(-c2ccc(F)cc2)n(CCC(=O)Nc2nc3cc(C)c(C)cc3s2)c1C	inactive: 85%
COc1ccc(OCc2ccc(-c3nc(C#N)c(NCc4ccc(F)cc4)o3)o2)cc1	inactive: 73%
Cc1nc(N2CCCC2)ncc1C(=O)Nc1ccc(OC(F)(F)F)cc1	inactive: 78%
Cc1ccc2c(CC(=O)Nc3nnc(C(C)C)s3)coc2c1C	inactive: 101%
COc1cc(OC)cc(-n2c(=O)c3sccc3n(Cc3cc(=O)n4c(C)cccc4n3)c2=O)c1	inactive: 172%
OCCN1CCN(c2ncnc3c2cnn3-c2cccc(Cl)c2)CC1	inactive: 92%
O=C(Cc1ccccc1)Nc1ccc2oc(-c3ccc(Br)cc3)nc2c1	inactive: 75%
CC(C)(C)CC(C)(C)N=C1NS(=O)(=O)c2ccccc21	inactive: 79%
COc1cccc(CNC(=O)Nc2cn(CC(C)C)c(=O)c3ccccc23)c1	inactive: 75%
COc1ccc(-c2oc3ncn4nc(-c5ccccc5OC)nc4c3c2-c2ccc(OC)cc2)cc1	inactive: 112%
Brc1ccc(CN2CCc3nc(Nc4ccccc4)ncc3C2)s1	inactive: 86%
O=C(c1ccc2c(c1)N(Cc1ccccc1F)C(=O)c1ccccc1S2=O)N1CCC(Cc2ccccc2)CC1 (configuration not stated)	inactive: 77%
N#CCNC(=O)c1sc2ccccc2c1Cl	inactive: 95%
N#Cc1c(SCC(N)=O)nsc1SCC(N)=O	inactive: 74%

Structure (SMILES)	survival
COc1ccc(N(Cc2cc3cc(OC)ccc3[nH]c2=O)C(=O)c2cccc(Cl)c2)cc1	inactive: 88%
CC(C)C(c1nnnn1C1CCCC1)N1CCc2ccccc21 (configuration not stated)	inactive: 76%
COc1ccc(OC)c(CNC(=O)c2cc3c(=O)oc4ccc(C)cc4c3s2)c1	inactive: 90%
Cc1ccc(Cl)cc1NC(=O)Cn1nnc2sc3c(c2c1=O)CCC(C(C)(C)C)C3 (configuration not stated)	inactive: 58%
Cc1cccc(N(C)S(=O)(=O)c2nnc(NC(=O)C(C)(C)C)s2)c1	inactive: 99%
COc1ccc(CCNc2ncnc3c2cnn3-c2ccc(F)cc2)cc1	inactive: 61%
CCCSc1nc2sc3c(c2c(=O)n1-c1ccc(C)cc1)CCCC3	active: 8%
CNc1nc(SC)nc(N(C)C#N)n1	inactive: 104%
CC(c1ccccc1)n1cc(C(=O)NCCN2CCCCCC2)nn1 (configuration not stated)	inactive: 103%
CCOC(=O)c1c(S(=O)(=O)NCC(=O)Nc2cccc(SC)c2)c(C)n(C)c1C	inactive: 83%
COc1ccc(NC(=O)CCCS(=O)(=O)c2nc(-c3ccccc3OC)cc(C(F)(F)F)n2)c(OC)c1	active: 46%
CC1=C(c2ccc(C(C)C)cc2)S(=O)(=O)NC1=NCc1ccc(OC(C)C)cc1	inactive: 93%
Cc1ccccc1NC(=O)C(C)Sc1nc2ccccc2c(=O)n1C (configuration not stated)	inactive: 78%
CCOc1ccc(/C=C/C(=O)NCc2ccco2)cc1OC	inactive: 83%
Cn1c(SCC(=O)N2CCOCC2)ncc(C(=O)Nc2ccc(F)cc2)c1=O	inactive: 87%
Brc1cccc(-c2nn(-c3ccccc3)c3c2cnc2cc4c(cc23)OCO4)c1	inactive: 82%
COCCn1c(CNC(=O)c2ccccc2C)nc2cccnc21	inactive: 73%
Cc1ccc(C)c(CN2CCC(CNC(=O)C(CC(C)C)N3Cc4ccccc4C3=O)CC2)c1 (configuration not stated)	inactive: 128%
COc1ccc(NC(=O)Nc2cccc(-c3noc(C)n3)c2)cc1	inactive: 126%
O=C(c1cccs1)N1CCCc2cc(NS(=O)(=O)c3ccc(Br)cc3)ccc21	inactive: 87%
CCc1cccc(C)c1NC(=O)C1CCN(S(=O)(=O)c2cc(Br)cc3c2N(C(C)=O)CC3)CC1	inactive: 59%
c1ccc(-n2cnnn2)cc1	inactive: 112%
COc1cccc(-n2ccnc2SCC(=O)Nc2cccc3ccccc23)c1	inactive: 129%

Structure (SMILES)	survival
O=C(NCc1ccccc1Cl)c1ccc2c(c1)ncn2-c1cccc(F)c1	inactive: 72%
COc1ccc(-n2c(CC3C(=O)Nc4ccc(C)cc43)nc3ccccc3c2=O)cc1 (configuration not stated)	inactive: 73%
CC1Cc2ccccc2N1C(=O)CSc1ncccc1C(=O)O (configuration not stated)	inactive: 84%
Cc1ccc(CNC(=O)C2CCCN(c3nc4ccccc4n4cccc34)C2)cc1 (configuration not stated)	inactive: 64%
COC(=O)c1ccc(NC(=O)Cn2cncn2)cc1	inactive: 83%
CC1CCN(CCCNC(=O)CN2C(=O)CSc3ccc(S(=O)(=O)N4CCCCC4)cc32)CC1	inactive: 71%
COc1ccc(C(C)NC(=O)CN(c2cc(OC)ccc2OC)S(=O)(=O)c2ccccc2)cc1 (configuration not stated)	inactive: 77%
COc1ccc(-c2noc(C3CCCN(C(=O)Nc4ccccc4)C3)n2)cc1 (configuration not stated)	inactive: 71%
CCOc1ccccc1-n1c(N)c(C(=O)OC)c2nc3ccccc3nc21	inactive: 80%
COc1ccc(-c2nsc(NC(=O)c3oc4ccc(Cl)cc4c3C)n2)cc1	inactive: 61%
O=C(Nc1ccc(F)cc1)c1nc(SCc2ccccc2F)ncc1Cl	inactive: 99%
N#C/C(=C/c1ccc(O)cc1)c1nc(-c2ccc(-c3ccccc3)cc2)cs1	active: 9%
Cc1nc(-c2cccc(F)c2)sc1CCNC(=O)Cc1ccc(F)cc1	inactive: 107%
CCCSC1=NC2(CCN(C(=O)NC3CCCCC3)CC2)N=C1c1ccc(OC)cc1	inactive: 72%
O=c1c2c3c(sc2nnn1CCCCOc1ccc(Cl)cc1)CCCC3	inactive: 108%
COc1cc(-c2noc(-c3cc4cccc(C)c4oc3=O)n2)cc(OC)c1OC	inactive: 92%
N#CC1=C2SCCN2C(=O)C(C#N)C12CCCCC2 (configuration not stated)	inactive: 99%
COc1cccc(CNC(=O)CN(c2ccc(C)cc2)S(=O)(=O)N(C)C)c1OC	inactive: 94%
COc1ccc(-c2csc3ncnc(Nc4ccc(OC)cc4OC)c23)cc1	inactive: 64%
COc1cccc(-c2nc3c(C#N)c[nH]n3c2NC2CCCCC2)c1	inactive: 72%
N#CC1=C(N)N(c2ccc(Cl)cc2)C2=C(C(=O)CCC2)C1c1cc(CN2CCOCC2)cs1 (configuration not stated)	inactive: 59%
COc1cc(NS(=O)(=O)c2cc(Br)cc3c2N(C(C)=O)C(C)C3)cc(OC)c1 (configuration not stated)	active: 20%
O=C(NC1CCCCC1)c1ccc2c(c1)N(Cc1ccc(F)cc1)C(=O)c1ccccc1S2(=O)=O	inactive: 105%
